{"source": "ChEMBL document CHEMBL4888484", "about": "“Replenishing the malaria drug discovery pipeline: Screening and hit evaluation of the MMV Hit Generation Library 1 (HGL1) against asexual blood stage Plasmodium falciparum ,using a nano luciferase reporter read-out” (2022)", "note": "About 540 (0.36%) of roughly 150,000 compounds showed an effect of 50% or more. Some of the results follow.", "data": [{"test_system": "Plasmodium falciparum", "test": "Primary screen in NF54 nanoGlo assay, in single point, at 2uM, 72h; a lower Z score goes with more inhibition", "type": "functional, Erythrocyte", "settings": "timepoint 72 hour", "units": {"% Inhibition": "%"}, "values": [{"smiles": "CC(=O)NC1CCC(N[C@H](C)c2cccc(O)c2)CC1", "note": "(stereo partly specified)", "% Inhibition": 1, "Z score": -0.23}, {"smiles": "N[C@@H]1CC[C@H](NC(=O)c2ccc(-c3ccc(F)cc3O)cc2)C1", "% Inhibition": 10, "Z score": -1.39}, {"smiles": "O=C1CCN(C(=O)C2(c3cccc(F)c3)CCCCC2)CCN1", "% Inhibition": -4, "Z score": 0.69}, {"smiles": "O=C1N(Cc2cccc(F)c2F)CCC[C@@]12CCN(CCOCCO)C2", "% Inhibition": -8, "Z score": 0.93}, {"smiles": "Cc1cc(N2CC[C@@]3(CCCN(CC4CCCCC4)C3=O)C2)nc2ccccc12", "% Inhibition": 3, "Z score": -0.54}, {"smiles": "COc1ccc(COCC(=O)NCc2cnoc2C)cc1", "% Inhibition": -3, "Z score": 0.5}, {"smiles": "CCN=C(NCc1cccc(C#N)c1)N[C@H]1CCCN(CCOC)C1", "% Inhibition": 2, "Z score": -0.19}, {"smiles": "Cc1ccccc1Cc1c(C)[nH]c2[nH]n(-c3ccccc3)c(=O)c2c1=O", "% Inhibition": 10, "Z score": -1.18}, {"smiles": "COc1ccc(NC(=O)[C@@H]2CCCN2Cc2ccc(OC)nn2)cc1", "% Inhibition": 2, "Z score": -0.23}, {"smiles": "COc1cc2ncn([C@@H](C)c3cccnc3)c(=O)c2cc1OC", "% Inhibition": 3, "Z score": -0.51}, {"smiles": "CCc1cnc(CNC(=O)c2ccc(C(C)(F)F)nc2)s1", "% Inhibition": 1, "Z score": -0.07}, {"smiles": "Cc1cc(C)cc(-n2ncc3c(=O)n(C[C@H](O)COc4ccc(F)cc4)cnc32)c1", "% Inhibition": -9, "Z score": 1.46}, {"smiles": "N[C@H]1CCCC[C@@H]1NC(=O)N[C@H]1C[C@H](c2ccccc2F)C1", "% Inhibition": 0, "Z score": 0}, {"smiles": "CC1CC(N2CCOC(Cn3cccn3)C2)C(=O)O1", "note": "(stereo unspecified)", "% Inhibition": -8, "Z score": 1.29}, {"smiles": "Cc1ccc(S(=O)(=O)N(c2cccc(C)c2)C2CCN(Cc3ccco3)CC2)cc1", "% Inhibition": -8, "Z score": 1.04}, {"smiles": "COc1cccc(Cc2nc(-c3nnn(Cc4ccc(F)cc4)c3C)no2)c1", "% Inhibition": -17, "Z score": 3.43}, {"smiles": "c1cc(-c2noc(CNc3nc(C4CC4)ns3)n2)ccn1", "% Inhibition": -1, "Z score": 0.16}, {"smiles": "O=C(CC1(CN2Cc3ccccc3C2=O)CCCCC1)N1CCCCCC1", "% Inhibition": -5, "Z score": 0.63}, {"smiles": "COc1ccc(NC2=NCCCC2)cc1", "% Inhibition": -27, "Z score": 3.18}, {"smiles": "CCCc1cc(OC(=O)c2ccccc2F)n(-c2cccc(F)c2)n1", "% Inhibition": -7, "Z score": 0.74}, {"smiles": "FC(F)(F)[C@@H]1CN(c2cc(N3CCOCC3)ncn2)CCO1", "% Inhibition": -6, "Z score": 1.27}, {"smiles": "O=C(Nc1ccc(Cl)c(C(F)(F)F)c1)C1=C(c2ccccc2)S(=O)(=O)CCO1", "% Inhibition": 9, "Z score": -1.12}, {"smiles": "O=C(Nc1cc(F)ccc1F)N1Cc2cccn2-c2ccccc21", "% Inhibition": 6, "Z score": -0.76}, {"smiles": "COCC1(C(=O)NC2(CO)CCCCC2)CCC1", "% Inhibition": -20, "Z score": 1.89}, {"smiles": "COC(=O)c1sc(N2CCCCCC2)nc1N", "% Inhibition": -2, "Z score": 0.21}, {"smiles": "NC(=O)COCCNC(=O)C1=CCCCCC1", "% Inhibition": -7, "Z score": 1.14}, {"smiles": "C1CCC(c2noc(-c3onc4c3CCCC4)n2)CC1", "% Inhibition": -3, "Z score": 0.41}, {"smiles": "COc1ccc(-c2nn(CCNC(=O)Nc3ccc(Cl)c(Cl)c3)c(=O)n2C2CC2)cc1", "% Inhibition": -7, "Z score": 1.36}, {"smiles": "O=C(COc1ccc(Cl)cc1)NCc1ccnc(N2CCCC2)n1", "% Inhibition": -17, "Z score": 3.15}, {"smiles": "Cc1ccc(S(=O)(=O)Oc2ccc(C)cc2-n2nc3ccccc3n2)cc1", "% Inhibition": -8, "Z score": 1.09}, {"smiles": "O=C(C1CC=CCC1)N1CC2CC1CO2", "note": "(stereo unspecified)", "% Inhibition": 2, "Z score": -0.33}, {"smiles": "O=C(NCc1ccccc1)c1cc(-c2ccccc2Cl)nn1-c1cccc(Cl)c1", "% Inhibition": -4, "Z score": 0.66}, {"smiles": "Cc1cnc(C2CCC2)n1[C@H]1CCN(C(=O)COc2ccc(F)cc2)C1", "% Inhibition": -17, "Z score": 2.18}, {"smiles": "C[C@@H]1CC=CC[C@H]1C(=O)N[C@H]1CCS(=O)(=O)[C@H]1C", "% Inhibition": 1, "Z score": -0.16}, {"smiles": "O=C(Nc1ncn(Cc2ccc(Cl)c(Cl)c2)n1)c1ccccc1Cl", "% Inhibition": 28, "Z score": -3.78}, {"smiles": "C[C@@H](C1CC1)N(C(=O)c1cnc(-c2ccccc2)nc1)C1CC1", "% Inhibition": 8, "Z score": -1.04}, {"smiles": "CCCc1cc(CNCc2ccc(F)cc2OC)on1", "% Inhibition": -16, "Z score": 1.76}, {"smiles": "OCCC[C@@H]1CN(Cc2cccc3nonc23)CC[C@@H]1N1CCOCC1", "% Inhibition": -8, "Z score": 1.54}, {"smiles": "CC(O)C1CN(C(=O)Nc2ncc(C3CCCCC3)s2)CCO1", "note": "(stereo unspecified)", "% Inhibition": 31, "Z score": -3.51}, {"smiles": "N#Cc1ccc(C(=O)N(CCc2cccc(F)c2)C2CC2)nc1", "% Inhibition": -19, "Z score": 2.58}, {"smiles": "COc1cccc(C(=O)O[C@@H](C)C(C)(C)C#N)n1", "% Inhibition": -1, "Z score": 0.09}, {"smiles": "CC(C)Cc1ccc(CN(C)C[C@H]2COCCO2)s1", "% Inhibition": -8, "Z score": 1.74}, {"smiles": "Cc1cc(C(=O)NCCc2ccccc2)n2nc(-c3ccccc3)cc2n1", "% Inhibition": 0, "Z score": -0.07}]}]}
